In all, about 52,000 compounds went through this assay and about 1,700 (3.3%) were called active. Cut-off read from the data, not from the text of the source: active = survival mostly below about 52% (no sharp cut-off); inactive = mostly above about 56%. The list shows a part of the results.

The experiment deals with Wild type. The experiment can be described thus: growth inhibition of S. aureus wild type versus tarO mutant, primary screen, teichoic acid synthesis inhibitors, RN4220, OD600 (AID 463173). The settings on record: S. aureus RN4220 wild type/DeltatarO growth, OD600, 18 h, active compounds read low, screened at 18.75 µg/mL (by protocol).
Regarding `Cc1ccc2c(CC(=O)N(Cc3ccc(Cl)cc3)Cc3ccco3)coc2c1`, the survival is inactive: 113%.

In the case of `Cc1ccccc1Nc1cc(C(=O)NCCc2ccc(Cl)cc2)c2ccccc2n1`, the survival was inactive: 102%.

`CC(CNC(=O)Cn1c(-c2cccs2)cc2ccccc21)c1ccccc1` (stereo unspecified): the survival is inactive: 143%.

On to `CCC(=O)N1CCc2cc(Br)cc(S(=O)(=O)N3CCCC(C(=O)NCc4ccc(OC)cc4)C3)c21` (stereo unspecified), for which the survival was inactive: 97%.

Take `Cn1c(O)c(C=NCC2CCN(C(=S)Nc3ccccc3)CC2)c(=O)n(C)c1=O`: the survival was inactive: 117%.

On to `COC(=O)Cc1c(C)c2ccc3c(c2oc1=O)CN(Cc1ccccc1OC)CO3`, for which the survival is inactive: 120%.

Regarding `COc1cccc(C(=O)Nc2c(C(=O)c3ccc(F)cc3)oc3ccccc23)c1`, the survival is inactive: 72%.

Regarding `CCCC(=O)Nc1c2c(nc3ccccc13)N(c1ccccc1)CC2`, the survival was inactive: 110%.

For the compound `COc1cc(C2c3c(oc4ccc(C)cc4c3=O)C(=O)N2Cc2ccccc2)ccc1O` (stereo unspecified), the survival is inactive: 91%.

`O=C(Nc1cccc(F)c1)c1cccc2c1C(=O)N(C1CCCCC1)C2`: the survival was inactive: 74%.

In the case of `Cc1ccc(Cl)cc1N1CCN(CCCNC(=O)c2nnc(Cc3cccc(Cl)c3)o2)CC1`, the survival is active: 12%.

On to `CCCOc1ccc(C2c3c(-c4ccccc4O)n[nH]c3C(=O)N2CCCOCC)cc1OCC` (stereo unspecified), for which the survival is inactive: 82%.

As for `CCC(=O)N1CCCc2cc(S(=O)(=O)N3CCC(C(=O)Nc4ccccc4CC)CC3)ccc21`, the survival is inactive: 152%.

`COc1cccc(NC(=O)CSc2nnc(-c3cccs3)o2)c1`: the survival is inactive: 86%.

In the case of `COc1ccccc1NC(=O)Cn1c(=O)n(-c2cccc(Cl)c2)c(=O)c2c1c1cc(C)ccc1n2C`, the survival was inactive: 82%.

`CC1=C(c2ccc(C)c(C)c2)S(=O)(=O)N=C1N1CCC(C(=O)Nc2cccc(F)c2)CC1`: the survival was inactive: 71%.

Regarding `CC(C)C(c1nnnn1CCc1ccccc1)N1CCCC1` (stereo unspecified), the survival was inactive: 122%.

Turning to `Cc1cc(C)cc(Nc2nnc(-n3nc(C)cc3C)c3ccccc23)c1`, the survival was inactive: 86%.

For `CN1CCc2nc3sc(C(=O)Nc4cccc(C#N)c4)c(N)c3cc2C1`, the survival was inactive: 91%.

As to `CCCOc1ccc(NC(=O)CC2C(=O)N(c3ccc(Cl)cc3)C(=O)N2CCc2ccncc2)cc1` (stereo unspecified), the survival was inactive: 124%.

As for `O=S(=O)(c1ccc(F)cc1)n1cccc1`, the survival was inactive: 115%.

With `CCN1CCN(Cc2c(O)ccc3oc(C)c(C(=O)Nc4ccc(C)cc4C)c23)CC1`, the survival was inactive: 84%.

Turning to `CCc1ccccc1NC(=O)CSc1ncc(S(=O)(=O)c2ccccc2)c(=O)[nH]1`, the survival was inactive: 90%.

As for `CCc1ccc(N(C(=O)c2ccco2)C(C(=O)NC2CCCC2)c2ccncc2)cc1` (stereo unspecified), the survival is inactive: 108%.

In the case of `Cc1cccc(OCC(=O)Nc2ccc(Cl)c(-c3nc4ccccc4[nH]3)c2)c1`, the survival was inactive: 50%.

For the compound `Cc1ccc(OC(=O)c2cccnc2)cc1`, the survival is inactive: 105%.

For `O=C1CC(c2nnc(Cc3ccccc3Cl)o2)CN1c1ccccc1` (stereo unspecified), the survival was inactive: 108%.

As to `C=C(C)c1nc2cc(OC)c(OC)cc2c(=O)o1`, the survival was inactive: 101%.

`Cc1ccc(-c2cc3c(n2-c2ccccc2F)CC(C)(C)CC3=O)cc1`: the survival was inactive: 103%.

`Cc1c(C)n(Cc2ccc(F)cc2)c2ccc(C(=O)Nc3ccc(Cl)cc3)cc12`: the survival was inactive: 71%.

For the compound `O=C(CC1C(=O)N(c2ccccc2)C(=O)N1Cc1ccc2c(c1)OCO2)Nc1ccccc1` (stereo unspecified), the survival is inactive: 77%.

In the case of `CCOC(=O)c1ccc(CN(Cc2ccccc2C)S(=O)(=O)c2ccc(F)c(C(=O)Nc3cccc(OC)c3)c2)cc1`, the survival was inactive: 63%.

Consider `COc1ccc(NC(=O)c2oc3ccccc3c2NC(=O)Cc2cccs2)cc1`, for which the survival is inactive: 90%.

For the compound `CCOC(=O)c1cnc2ccc(C)cc2c1NCCc1ccc(OC)c(OC)c1`, the survival was inactive: 117%.

`Cc1ccc(NC(=O)c2sc3nc(-c4ccc(F)cc4)ccc3c2N)cc1F`: the survival was inactive: 91%.

For the compound `O=C(CN1C(=O)CSc2ccc(S(=O)(=O)N3CCCC3)cc21)NCc1ccc(Cl)cc1`, the survival is inactive: 52%.

Take `COc1ccc(NC(=O)CN2C(=O)COc3ccc(S(=O)(=O)N4CCCCC4)cc32)cc1Cl`: the survival was inactive: 86%.

As to `O=S(=O)(Cc1ccccc1)N1CCN(Cc2ccco2)CC1`, the survival is inactive: 111%.

On to `CCSC(=C(C#N)C#N)c1cc2c([nH]1)CCCC2`, for which the survival is inactive: 116%.

On to `COc1ccc(C)cc1NC(=O)N1CCN(c2cc(-c3noc(C)n3)ccc2C)CC1`, for which the survival was inactive: 85%.

With `CC1CCCCC1NC(=O)CN1CCC(NC(=O)c2cccc(F)c2)CC1` (stereo unspecified), the survival was inactive: 112%.

On to `CCC1CCCCN1CCCNC(=O)c1ccc2c(c1)N(Cc1ccc(Cl)cc1)C(=O)c1ccccc1S2(=O)=O` (stereo unspecified), for which the survival was inactive: 113%.

In the case of `COc1ccccc1N1CCN(c2ccc(-c3nc(-c4ccccc4)no3)cc2[N+](=O)[O-])CC1`, the survival is inactive: 85%.

Consider `O=C(Cn1cc(C(=O)C2CC2)c2ccccc21)Nc1ccc(Br)cc1`, for which the survival is inactive: 103%.

In the case of `CCN1C(=O)/C(=C2/Sc3ccc(OC)cc3N2CC)SC1=Nc1ccc2c(c1)OCCO2`, the survival was inactive: 98%.

Turning to `C[n+]1ccccc1C(O)Cc1ccncc1` (stereo unspecified), the survival is inactive: 120%.

Turning to `Cc1ccc(C)c(Cn2c(=O)n(CCCCCC(=O)NCc3ccc4c(c3)OCO4)c(=O)c3sccc32)c1`, the survival was inactive: 102%.

Turning to `CC(=O)c1ccc(NC(=O)CCCc2nc(-c3cccc(C)c3)no2)cc1`, the survival was inactive: 74%.

Turning to `COc1ccc(C2CC(=O)c3c(C)nc(N4CCN(C=O)CC4)nc3C2)c(OC)c1` (stereo unspecified), the survival was inactive: 94%.

Consider `CCn1c(=O)sc2cc(NC(=O)c3cccc(OC)c3)ccc21`, for which the survival was inactive: 62%.

With `O=C(Cn1ccn(-c2ccc(F)c(F)c2)c(=O)c1=O)c1ccc(F)cc1`, the survival is inactive: 86%.

Consider `CC(C)c1nn2c(=O)cc(COC(=O)CNC(=O)c3ccccc3Cl)nc2s1`, for which the survival is inactive: 140%.

On to `CCN(CC)C(=O)C1CCN(S(=O)(=O)c2ccc(C)cc2)CC1`, for which the survival is inactive: 113%.

Regarding `CCN1CCN(c2nnc(-n3cccc3C(=O)Nc3cccc(OC)c3)s2)CC1`, the survival was inactive: 79%.

As to `Cc1ccc2[nH]c(=O)c(CN(C(=O)NC3CCCCC3)C3CCCCC3)cc2c1`, the survival was inactive: 98%.

For the compound `CC(=O)NC(Cc1cccc(C)c1)C(=O)NC1CCN(c2nc(C)cc(C)c2C#N)CC1` (stereo unspecified), the survival was inactive: 98%.

Values taken from PubChem BioAssay AID463173 (ICCB-Longwood Screening Facility, Harvard Medical School, 2010).
